# In all, about 230,000 compounds went through this assay and about 3,600 (1.6%) were called active. The inconclusive results got no clear call from the source; some entries with a clear call stand among them for comparison. The call rests on the fitted dose curve; in most records, active means well fitted inhibition curve with a large enough effect (not every such curve was filed as active); inconclusive means small, poorly fitted or top-dose-only effect, or another doubt; inactive means no such curve, though single readings can be large or run the other way. Potencies beside an inconclusive call are fits to weak or partial responses and may not hold up.
# Molecular target: Lysine-specific demethylase 4E (Homo sapiens) (UniProt B2RXH2)
# Sequence of UniProt B2RXH2 (B2RXH2 whole entry, looked up, the tested form may be a part): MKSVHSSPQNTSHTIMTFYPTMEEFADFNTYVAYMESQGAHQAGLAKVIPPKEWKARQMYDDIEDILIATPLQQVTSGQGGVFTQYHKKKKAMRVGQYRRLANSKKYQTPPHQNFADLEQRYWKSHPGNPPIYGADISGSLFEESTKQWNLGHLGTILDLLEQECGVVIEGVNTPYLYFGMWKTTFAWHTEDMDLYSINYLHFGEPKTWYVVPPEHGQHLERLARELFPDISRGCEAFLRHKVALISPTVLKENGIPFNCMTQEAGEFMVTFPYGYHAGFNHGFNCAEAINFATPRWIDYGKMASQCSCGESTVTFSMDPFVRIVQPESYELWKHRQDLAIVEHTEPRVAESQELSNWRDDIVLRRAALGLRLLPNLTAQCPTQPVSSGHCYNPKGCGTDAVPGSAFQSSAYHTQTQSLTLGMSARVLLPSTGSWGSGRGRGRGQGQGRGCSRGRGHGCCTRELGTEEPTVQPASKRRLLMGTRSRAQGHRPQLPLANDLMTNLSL
# Assay: qHTS Assay for Inhibitors of Human Jumonji Domain Containing 2E (JMJD2E)
# Details: JMJD2E catalytic domain, FDH-coupled NADH fluorescence (FDH is formaldehyde dehydrogenase); series mostly up to 57.1 µM; activity change, negative = inhibition: at the top concentration
# Further: nearly all actives have a fitted effect of over 50% in size.
# Potency means the concentration at half of the fitted maximal effect; tags describe the fitted curve by direction and shape.
# 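Wherever activity change, negative = inhibition is given: 0% = wells with enzyme and -100% = buffer wells without enzyme.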
SMILES,Potency,"activity change, negative = inhibition"
Cc1nc(NS(=O)(=O)c2ccc(Cl)s2)c2c3c(sc2n1)CCCC3,"inconclusive: 28.2 µM [inhibitor, single point]",
CN(C)CCCn1c(NC(=O)C2CCCCC2)nc2ccccc21,,inactive: 0.207%
Cc1nc2cc(-c3ccsc3-n3c(C)ccc3C)[nH]n2c(=O)c1Cl,"inconclusive: 25.1 µM [inhibitor, single point]",
COc1ccc(NC(=O)c2ccc(-c3nn(C)c(=O)c4ccccc34)cc2)cc1C(N)=O,"inconclusive: 35.5 µM [inhibitor, single point]",
CC(C)CC[n+]1ccn(-c2nc3ccccc3nc2[N-]S(=O)(=O)c2ccccc2)c1,"inconclusive: 31.6 µM [inhibitor, partial curve]",
CCOC(=O)c1cc(CC)sc1NC(=O)c1ccc2c(c1)OCCO2,"inconclusive: 31.6 µM [inhibitor, partial curve]",
O=C(Nc1nnc(-c2ccccc2)o1)Nc1ccccc1Cl,"inconclusive: 28.2 µM [inhibitor, partial curve]",
Nc1ccc2nn(-c3cccc4ccccc34)nc2c1,"inconclusive: 31.6 µM [inhibitor, partial curve]",
O=C1CC(c2ccc3c(c2)OCO3)Sc2nc3ccccc3n21 (stereo not drawn),"inconclusive: 28.2 µM [inhibitor, single point]",
CCCCC(=O)Nc1ccc(C(=O)NCCc2ccc(S(N)(=O)=O)cc2)cc1,,inactive: 10.5%
COc1ccc(Cn2c(-c3ccc(Cl)cc3)c[n+]3ccccc23)cc1,"inconclusive: 39.8 µM [inhibitor, single point]",
Cc1cc(=O)oc2cc(OCc3ccc(C(=O)OCC(=O)Nc4ccc(N(C)C)cc4)cc3)ccc12,"inconclusive: 31.6 µM [inhibitor, partial curve]",
O=S(=O)(c1ccccc1)N1CCN(Cc2cccc(Cl)c2)CC1,"inconclusive: 25.1 µM [inhibitor, single point]",
O=C(CN1C(=O)COc2ccccc21)Nc1ccc(F)cc1,"inconclusive: 1.58 µM [inhibitor, partial curve]",
Cn1nccc1C(=O)Nc1sc2c(c1C(N)=O)CCCC2,"inconclusive: 20 µM [inhibitor, single point]",
COC(=O)Cc1c(C)c2c(OCc3nn[nH]n3)cc(C)cc2oc1=O,"inconclusive: 28.2 µM [inhibitor, partial curve]",
O=C(CN1CC(=O)Nc2ccccc21)NCCc1ccc(Cl)cc1Cl,"inconclusive: 39.8 µM [inhibitor, single point]",
O=C(Nc1nc2ccc(S(=O)(=O)N3CCCC3)cc2s1)C1CCCCC1,,inactive: -13.1%
CCOC(=O)CCc1c(C)nc2cc(-c3ccccc3OC)[nH]n2c1=O,"inconclusive: 25.1 µM [inhibitor, partial curve]",
CC(NC(=O)C(=O)NCC1CCCO1)c1ccccc1 (stereo not drawn),,inactive: -8.75%
Cc1cc(O)c(C(C)C)cc1N=C1CSC(=O)N1,,inactive: -2.13%
COC(=O)CSc1nc2c(c(-c3ccco3)c1C#N)CCCC2,"inconclusive: 25.1 µM [inhibitor, partial curve]",
Cc1cc(Cl)ccc1NNC(=O)CCc1ccccc1,,inactive: 7.45%
CC(=O)NS(=O)(=O)c1ccc(NC(=S)NC(=O)Cc2ccccc2)cc1,,inactive: -8.45%
Nc1ccc2c(c1)-c1ccccc1S(=O)(=O)N2,"inconclusive: 35.5 µM [inhibitor, single point]",

SMILES,Potency,"activity change, negative = inhibition"
Cc1ccsc1C1Nc2ccc3ncccc3c2C2=C1C(=O)CCC2 (stereo not drawn),"inconclusive: 25.1 µM [inhibitor, partial curve]",
CCN(CC)C(=O)C1CCCN(C(=O)Nc2ccc3nsnc3c2)C1 (stereo not drawn),,inactive: -0.661%
CC1=C(C(=O)Nc2ccccc2C(F)(F)F)C(c2sccc2C)NC(=S)N1 (stereo not drawn),"inconclusive: 39.8 µM [inhibitor, single point]",
O=C(NCc1ccccn1)c1c(O)c2cccc3c2n(c1=O)CC3,"inconclusive: 11.2 µM [inhibitor, partial curve]",
CC(CC(=O)Nc1ncc([N+](=O)[O-])s1)c1ccccc1 (stereo not drawn),,inactive: -1.28%
COc1ccc(NC(=S)NNC(=S)Nc2cccc(C(F)(F)F)c2)cc1,,inactive: 3.55%
CCS(=O)(=O)N1Cc2ccccc2CC1C(=O)Nc1nc2ccc(F)cc2s1 (stereo not drawn),"inconclusive: 39.8 µM [inhibitor, single point]",
COc1ccc(CCNc2nc(-c3sc(C)nc3C)cs2)cc1OC,"inconclusive: 28.2 µM [inhibitor, partial curve]",
O=C(O)/C=C/C(=O)NCCc1cccc(Cl)c1,,inactive: 10.7%
Cc1cc(C)cc(NCc2cc3c(cc2[N+](=O)[O-])OCO3)c1,,inactive: -1.65%
CC(=O)Nc1ccc2nc(NC(=O)COc3ccccc3C)sc2c1,"inconclusive: 35.5 µM [inhibitor, single point]",
Brc1ccccc1-c1nnc(COc2cccc3cccnc23)o1,"inconclusive: 39.8 µM [inhibitor, single point]",
O=C(CCN1CCOCC1)Nc1ccc2c(c1)N(C(=O)CN1CCOCC1)c1ccccc1CC2,"inconclusive: 31.6 µM [inhibitor, single point]",
Cc1ccc(CNCCNCCO)s1,,inactive: 17.9%
CCOC(=O)C1=C(C)N=c2s/c(=C3/C(=O)Nc4ccccc43)c(=O)n2C1c1ccc(C)cc1 (stereo not drawn),,inactive: 5.8%
O=C(NCc1cccs1)C1CCCN(c2ncccn2)C1 (stereo not drawn),"inconclusive: 31.6 µM [inhibitor, partial curve]",
COc1ccc(-c2cn3c(C)c(C(=O)Nc4cc(NC(C)=O)ccc4OC)sc3n2)cc1,,inactive: -1.86%
CCN(Cc1ccccc1)C(=O)COC(=O)c1cc(=O)[nH]c2ccccc12,"inconclusive: 28.2 µM [inhibitor, partial curve]",
COc1ccccc1-c1nc(S(=O)(=O)c2ccc(Cl)cc2)c(N(C)C)o1,,inactive: -23.8%
CCC(C)(C)n1nnnc1CN1CCc2ccccc21,,inactive: 0.846%
CCOC(=O)CC(=O)CSc1ncnc2c1cnn2-c1ccccc1,,inactive: -13.7%
Cc1ccc(/C=N/NC(=O)c2cc(C3CC3)nc3ccccc23)o1,"inconclusive: 39.8 µM [inhibitor, single point]",
CCOC(=O)N1CCN(C(=O)C2CC(c3cc(OC)ccc3OC)=NO2)CC1 (stereo not drawn),"inconclusive: 12.6 µM [inhibitor, partial curve]",
Nc1cc(=O)[nH]c(SCC(=O)Nc2cccc(Cl)c2)n1,,inactive: 3.1%
COc1ccc(/C=N/NC(=O)c2ccc(N(C)S(=O)(=O)c3ccccc3)cc2)c(OC)c1,"inconclusive: 35.5 µM [inhibitor, single point]",

SMILES,Potency,"activity change, negative = inhibition"
O=C1C(=O)c2c(C(=O)c3ccccc3)coc2-c2ccccc21,"inconclusive: 1 µM [inhibitor, full curve]",
CC1(C)CC(=O)c2cc(C(=O)NC3CCSC3=O)c(=O)n(-c3ccc(Cl)cc3)c2C1 (stereo not drawn),"inconclusive: 25.1 µM [inhibitor, single point]",
Cc1ccc(N2C(=O)c3ccccc3C2C(=O)c2ccc(O)cc2O)cc1 (stereo not drawn),active: 20 µM,
CCOC(=O)c1ccc2c(c1)[n+](CC)c(C)n2-c1ccccc1,"inconclusive: 15.8 µM [inhibitor, partial curve]",
CCC(Cc1ccccc1)NC(=O)C1=C(C)C(=O)OC12CCC(C)CC2 (stereo not drawn),,inactive: -1.33%
Cc1ccc2nc3c(cc(C#N)c(=O)n3CC3CCCO3)c(=O)n2c1 (stereo not drawn),"inconclusive: 6.31 µM [inhibitor, partial curve]",
CCC(Sc1ncnc2c1c(-c1ccccc1)cn2-c1ccc(OC)cc1)C(=O)OC (stereo not drawn),"inconclusive: 39.8 µM [inhibitor, single point]",
CCCn1c2c(c(=N)c3c1CCC3)CCCC2,,inactive: -15.3%
CCOc1ccc2nc(N/C(N)=N/C(=S)Nc3ccc(OC)cc3)nc(C)c2c1,"inconclusive: 35.5 µM [inhibitor, single point]",
Cn1c(CNc2ccccc2)nc2ccccc21,"inconclusive: 39.8 µM [inhibitor, single point]",
COc1ccc2c(c1OC)C(=O)OC2Nn1cncn1 (stereo not drawn),"inconclusive: 25.1 µM [inhibitor, partial curve]",
CCOP(=O)(c1ccccc1)c1nc(-c2ccccc2C)oc1N1CCCCC1 (stereo not drawn),"inconclusive: 31.6 µM [inhibitor, single point]",
O=c1cc(-c2ccc(O)c(-c3c(O)cc(O)c4c(=O)cc(-c5ccc(O)cc5)oc34)c2)oc2cc(O)cc(O)c12,,inactive: -24.4%
C(=C\c1ccccc1)/CNCC1CCCO1 (stereo not drawn),,inactive: -1.93%
CC1(C)SC(=S)N(NC(=O)Nc2cccc3ccccc23)C1N(O)C(=O)Nc1ccccc1 (stereo not drawn),"inconclusive: 35.5 µM [inhibitor, single point]",
Cc1nc2ccc(N=NC3=C(O)CCCC3=O)cc2s1,,inactive: -2.03%
C/C(=N\NC(=O)c1cccc(S(=O)(=O)Nc2cccc(Cl)c2)c1)c1cccs1,"inconclusive: 35.5 µM [inhibitor, single point]",
Cc1csc(NC(=O)CSc2ccc(-c3ccccn3)nn2)n1,"inconclusive: 39.8 µM [inhibitor, single point]",
N#C/C(=C\c1ccco1)C(=O)Nc1cccc2ncccc12,"inconclusive: 35.5 µM [inhibitor, single point]",
c1ccc2c3c([nH]c2c1)-c1[nH]ncc1CC3,"inconclusive: 25.1 µM [inhibitor, partial curve]",
CCn1c(CSc2nc3ccccc3s2)nnc1SCC(=O)OC(C)(C)C,"inconclusive: 31.6 µM [inhibitor, single point]",
CCN(CC)c1ccc(/C=N\N2CCN(Cc3ccc(C)cc3)CC2)cc1,,inactive: -27.5%
Cc1nnc(NC(=O)c2oc3c(ccc4ccccc43)c2C)s1,"inconclusive: 15.8 µM [inhibitor, partial curve]",

# — PubChem BioAssay AID2147 (National Center for Advancing Translational Sciences (NCATS), 2009)
